Cytotoxicity call and growth inhibition call data for 25 compounds are collected here from the antibiotic and cytotoxicity screens of Wong et al. (2023).

This is one part of the list.

The test system of test [1] is HSkMC (human skeletal muscle cells). As to the kind of experiment: cytotoxicity call (relative viability < 0.9). The settings on record: 10 µM.
For test [2], the system named is HepG2. The test is described as follows: cytotoxicity call (relative viability < 0.9). The conditions noted are these: 10 µM.
Test [3] concerns S. aureus RN4220. As to the kind of experiment: growth inhibition call (relative growth <= 0.2). The conditions noted are these: 50 µM.

On to `C[C@@H]1CCCCO[C@@H](CN(C)S(=O)(=O)c2cccs2)[C@@H](C)CN([C@H](C)CO)C(=O)c2cc(NC(=O)Nc3ccccc3)ccc2O1`, for which the cytotoxicity call in test [1] and in test [2] was “inactive” in each case. Further, in test [3], the growth inhibition call was “inactive”.

Turning to `O=C(C[C@@H]1C[C@H]2c3cc(NS(=O)(=O)c4ccc(F)cc4)ccc3O[C@H]2[C@H](CO)O1)NCc1cccc(F)c1`, the cytotoxicity call in test [1] and in test [2] was “inactive” throughout. Moreover, the growth inhibition call in test [3] is “inactive”.

In the case of `COc1ccc(S(=O)(=O)Nc2ccc3c(c2)C(=O)N([C@@H](C)CO)C[C@H](C)[C@H](CN(C)Cc2ccc(Cl)c(Cl)c2)O3)cc1`, the cytotoxicity call in test [1] and in test [2] was “inactive” each time. Also, in test [3], the growth inhibition call is “inactive”.

For the compound `COc1ccc([Si](C)(C)[C@@H]2[C@@H](CC(=O)N3Cc4ccccc4C[C@H]3CO)O[C@]3(C(=O)N(C)c4c(Br)cc(C)cc43)[C@H]2C)cc1`, the cytotoxicity call in test [1] is “active”. In addition, in test [2], the cytotoxicity call is “inactive”. For the same compound, in test [3], the growth inhibition call is “inactive”.

`CCOC(=O)C1CCN(C)CC1`: the cytotoxicity call in test [1] and in test [2] was “inactive” throughout. The growth inhibition call in test [3] was “inactive”.

On to `C[C@@H]1CCCCO[C@H](CN(C)S(=O)(=O)c2ccccc2)[C@H](C)CN([C@@H](C)CO)C(=O)c2cc(NC(=O)Nc3ccc(F)cc3)ccc2O1`, for which, in test [1], the cytotoxicity call is “inactive”. Besides, the cytotoxicity call in test [2] is “active”. For the same compound, the growth inhibition call in test [3] is “inactive”.

On to `C[C@@H]1CN([C@H](C)CO)C(=O)c2cc(NC(=O)CCN3CCOCC3)ccc2O[C@@H]1CN(C)C(=O)NC1CCCCC1`, for which the cytotoxicity call in test [1] and in test [2] was “inactive” throughout. Further, the growth inhibition call in test [3] is “inactive”.

Consider `COc1ccc(NC(=O)N(C)C[C@@H]2Oc3c(NC(=O)Nc4cccc5ccccc45)cccc3C(=O)N([C@@H](C)CO)C[C@@H]2C)cc1`, for which the cytotoxicity call in test [1] and in test [2] was “inactive” throughout. In addition, the growth inhibition call in test [3] is “inactive”.

Consider `O=P(O)(O)C(O)(Cn1ccnc1)P(=O)(O)O`, for which the cytotoxicity call in test [1] and in test [2] was “inactive” throughout. Besides, the growth inhibition call in test [3] was “inactive”.

As for `C[C@H]1CN([C@@H](C)CO)C(=O)CCCn2cc(nn2)CO[C@H]1CN(C)S(=O)(=O)c1ccc(-c2ccccc2)cc1`, the cytotoxicity call in test [1] and in test [2] was “inactive” in each case. Moreover, the growth inhibition call in test [3] is “inactive”.

For `N[C@@H]1CC[C@@H](c2ccc(Cl)c(Cl)c2)c2ccccc21`, the cytotoxicity call in test [1] and in test [2] was “active” each time. For the same compound, in test [3], the growth inhibition call is “active”.

Turning to `C[C@@H]1CN([C@@H](C)CO)C(=O)c2cc(-c3cccc(C(=O)N(C)C)c3)cnc2O[C@@H]1CN(C)S(=O)(=O)c1ccc(F)cc1`, the cytotoxicity call in test [1] and in test [2] was “inactive” each time. For the same compound, in test [3], the growth inhibition call is “inactive”.

`COc1ccc(S(=O)(=O)N(C)C)cc1`: the cytotoxicity call in test [1] and in test [2] was “inactive” each time. The growth inhibition call in test [3] was “inactive”.

In the case of `C[C@H](CO)N1C[C@H](C)[C@@H](CN(C)C(=O)Nc2ccc(F)cc2)Oc2ccc(NC(=O)Cn3cnnn3)cc2CC1=O`, the cytotoxicity call in test [1] and in test [2] was “inactive” each time. Also, in test [3], the growth inhibition call was “inactive”.

In the case of `[N-]=[N+]=N[C@]1(CO)O[C@@H](n2ccc(N)nc2=O)[C@H](O)[C@@H]1O`, the cytotoxicity call in test [1] and in test [2] was “inactive” in each case. In test [3], the growth inhibition call is “inactive”.

`CN1C(=O)c2cc(NC(=O)c3cnccn3)ccc2OC[C@H]2O[C@H](CC(=O)N[C@@H]3CCN(Cc4ccccc4)C3)CC[C@@H]21`: the cytotoxicity call in test [1] and in test [2] was “inactive” each time. For the same compound, the growth inhibition call in test [3] was “inactive”.

On to `Cc1noc(C)c1NC(=O)N(C)C[C@@H]1OCCCC[C@@H](C)Oc2ccc(NC(=O)CCC(F)(F)F)cc2C(=O)N([C@H](C)CO)C[C@@H]1C`, for which the cytotoxicity call in test [1] and in test [2] was “inactive” in each case. Also, the growth inhibition call in test [3] was “inactive”.

As for `C[C@@H]1CCCCO[C@@H](CN(C)C(=O)Nc2cccc3ccccc23)[C@H](C)CN([C@@H](C)CO)C(=O)c2cc(NS(=O)(=O)c3cccs3)ccc2O1`, the cytotoxicity call in test [1] and in test [2] was “inactive” each time. Moreover, the growth inhibition call in test [3] was “inactive”.

For `Cc1ccc(S(=O)(=O)Nc2ccc3c(c2)C(=O)N([C@H](C)CO)C[C@@H](C)[C@H](CN(C)C(=O)Nc2ccc(C(F)(F)F)cc2)OCCCC[C@@H](C)O3)cc1`, the cytotoxicity call in test [1] and in test [2] was “inactive” in each case. Also, in test [3], the growth inhibition call is “inactive”.

`C[C@@H]1CN([C@@H](C)CO)C(=O)CCCn2cc(nn2)CO[C@@H]1CN(C)C(=O)Nc1ccc2c(c1)OCCO2`: the cytotoxicity call in test [1] and in test [2] was “inactive” in each case. The growth inhibition call in test [3] is “inactive”.

Regarding `C[C@@H]1CN([C@H](C)CO)C(=O)c2cc(C#CC3CCCCC3)cnc2O[C@H]1CN(C)C(=O)Cc1ccccn1`, the cytotoxicity call in test [1] and in test [2] was “inactive” throughout. Moreover, the growth inhibition call in test [3] is “inactive”.

On to `Cc1ccccc1S(=O)(=O)N1C[C@H](O)COC[C@@H]2O[C@H](CC(=O)NCc3ccccc3Cl)CC[C@H]21`, for which the cytotoxicity call in test [1] and in test [2] was “inactive” in each case. In addition, the growth inhibition call in test [3] was “inactive”.

`C[C@@H]1[C@@H]([Si](C)(C)F)[C@H](CC(=O)N2Cc3ccccc3C[C@H]2CO)O[C@@]12C(=O)N(c1ccccc1)c1ccccc12`: the cytotoxicity call in test [1] and in test [2] was “inactive” each time. Besides, in test [3], the growth inhibition call is “inactive”.

Turning to `CNC[C@H]1OCCCC[C@@H](C)Oc2ccc(NC(=O)Nc3cccc4ccccc34)cc2C(=O)N([C@@H](C)CO)C[C@@H]1C`, the cytotoxicity call in test [1] and in test [2] was “inactive” in each case. Further, in test [3], the growth inhibition call was “inactive”.

Take `C[C@H](CO)N1C[C@H](C)[C@H](CN(C)CC2CC2)Oc2c(NS(=O)(=O)c3ccc(F)cc3)cccc2C1=O`: the cytotoxicity call in test [1] and in test [2] was “inactive” each time. Further, the growth inhibition call in test [3] was “inactive”.
